Hit rate of the full screen: of about 150,000 compounds, about 540 (0.36%) showed an effect of 50% or more. Some of the results follow.

In this assay the test system is Plasmodium falciparum. Briefly: Primary screen in NF54 nanoGlo assay, in single point, at 2uM, 72h; a lower Z score goes with more inhibition. It is filed as functional, Erythrocyte. To be noted: timepoint 72 hour.
`COc1cc(N2CCC(C(=O)O)(n3cnc4ccccc43)CC2)ncn1`: the “% Inhibition” value was -6% and the Z score is 0.75.
In the same order, the values of `CO[C@H](CNc1ccccc1CS(C)(=O)=O)Cc1ccccc1` are -10% and 1.34.
On the same counts, the results for `COc1ccc(NC(=O)C2(N(Cc3ccco3)C(=O)CC3C(c4c(C)[nH]c5ccccc45)C3(C)C)CCN(C)CC2)cc1` (centres undefined) are -35% and 4.14.
On the same counts, the results for `O=C(NCCN1CCCCC1)[C@@]1(CCO)CCN(c2ncccn2)C1` are -11% and 2.15.
In the case of `O=C(Cn1ccc2ccccc21)N1CC[C@@]2(CCCN(CC3CC3)C2=O)C1`, the “% Inhibition” value is on record as 0% and the Z score was found to be 0.
In the same order, the values of `CCn1cc(CN(C)C(=O)c2cccc(-c3nc(OC)n(C)n3)c2)cn1` are -7% and 0.69.
In the same order, the values of `N[C@H](C(=O)N1CCOc2ccc(Br)cc2C1)C1CCC1` are -12% and 1.09.
On the same counts, the results for `O=C(Cc1ccoc1)N1CC(=O)N(CC(F)(F)F)C1` are 2% and -0.26.
As for `CN(C)c1nc2c(s1)[C@@H](c1cccc3cnccc13)CC(=O)NC2`, the “% Inhibition” value turned out to be 11% and the Z score is -1.95.
In the same order, the values of `Cn1ccc(NC(=O)CN(CCc2c[nH]c3ccccc23)C2CCCCC2)n1` are -4% and 0.41.
On the same counts, the results for `CC(C)O[C@H]1CN(c2nc(-c3cccnc3)nc3c2cnn3C)C[C@@H]1O` are 7% and -0.92.
`Cn1c(C(=O)NCCN2CCCCC2)c(-c2ccc(Cl)cc2)c2cc(Cl)ccc21`: the “% Inhibition” value is listed as -1% and the Z score is 0.11.
On the same counts, the results for `COc1cccc(-c2nc(C)c(C(=O)NCc3nnc4ccccn34)s2)c1` are -3% and 0.36.
On the same counts, the results for `O=C(COc1ccc(Cl)cc1)N1Cc2cncnc2C1` are -16% and 2.7.
On the same counts, the results for `O=C(CC1(N2Cc3ccccc3C2=O)CCOCC1)N1CCC[C@H](c2nnc3ccccn23)C1` are -8% and 0.99.
For `FC(F)n1nccc1-c1nnc(Nc2ccn(Cc3c(Cl)cccc3Cl)n2)s1`, the “% Inhibition” value is listed as -4% and the Z score came to 0.57.
On the same counts, the results for `CC(C)N(C(=O)c1ccnn1C(C)C)[C@H]1CCOC1` are 0% and -0.09.
In the same order, the values of `O=C(CN1CCN(c2ccccc2F)CC1)c1ccc2c(c1)OCO2` are 33% and -4.84.
On the same counts, the results for `COc1ccc(C(Nc2ccnc(OC)c2C#N)[C@H]2C[C@H](O)C2)cn1` (some centres undefined) are 11% and -1.37.
`CC[C@H](NCc1nnc(C)n1CC)c1nccs1`: the “% Inhibition” value is -12% and the Z score worked out at 1.55.
On the same counts, the results for `Cc1ccc(CN(CCC(=O)N2CCOCC2)CCc2ccccc2)s1` are -2% and 0.2.
In the same order, the values of `CCn1nnc2cc(C(=O)N3CCC[C@H]3c3ccc4c(c3)OCCO4)ccc21` are -41% and 4.78.
On the same counts, the results for `C[C@H]1CCCN1C(=O)c1ccc(S(=O)(=O)NC2CCOCC2)cc1` are -4% and 0.48.
As for `Cn1ncc2c(N3CC[C@H](Oc4ccc(Cl)c(Cl)c4)C3)ncnc21`, the “% Inhibition” value is -10% and the Z score is on record as 1.42.
In the same order, the values of `Cn1cccc1C(=O)OCC[C@H]1CCCCN1C(=O)c1cccn1C` are -16% and 1.5.
In the same order, the values of `Cc1ccc(C)c(C2CCN(C(=O)[C@@H]3CC(=O)NC(=O)N3)CC2)c1` are 10% and -1.88.
In the same order, the values of `N#CC(NC(=O)C1CNC(=O)C1)c1ccc(OCc2ccccc2)cc1` (centres undefined) are 4% and -0.63.
`C[C@@H]1CC(=O)N[C@H](C(=O)NCc2ccncc2OCC(F)(F)F)C1`: the “% Inhibition” value is recorded as -10% and the Z score stood at 1.37.
In the same order, the values of `CN(C(=O)[C@H]1C[C@@H]1C(F)F)C1CC(O)C1` (some centres undefined) are -10% and 1.06.
Take `CC(NC(=O)OC(C)(C)C)C1CCCCN1C(N)=O` (centres undefined): the “% Inhibition” value is -2% and the Z score was 0.27.
On to `O=C(NCc1cccc(C(=O)N2CCCC2)c1)C1CC1c1ccco1` (centres undefined), for which the “% Inhibition” value is -9% and the Z score is given as 1.23.
In the same order, the values of `N#Cc1ccc(Cl)c(S(=O)(=O)N2CCO[C@H](C3CC3)C2)c1` are -9% and 1.72.
On the same counts, the results for `COc1ccccc1CNC(=O)[C@]1(C)Cn2nc(-c3ccccc3)cc2C(=O)N1c1cccc(C)c1C` are -3% and 0.46.
In the same order, the values of `COc1ncnc(C)c1-c1cccc(C(=O)NC[C@@]2(C)CCCO2)c1` are 4% and -0.76.
With `O=C(NCCc1nc2c(c(C(F)(F)F)n1)COCC2)c1ccsc1`, the “% Inhibition” value is listed as -8% and the Z score was determined as 1.61.
On the same counts, the results for `O=C(NC1CC1)C1Cc2cc(C(F)(F)F)ccc2N2CCN(Cc3ccccc3)CC12` (centres undefined) are 4% and -0.49.
On to `COc1ccccc1-c1nnc([C@H]2CCN(C3CCCCC3)C2)o1`, for which the “% Inhibition” value is -7% and the Z score was determined as 1.08.
In the same order, the values of `CCN(c1ccccc1)S(=O)(=O)c1cc(Br)cnc1N` are -11% and 2.35.
In the case of `Cc1ccc(-c2ccc(CCC(=O)NCC3CC3)n2-c2ccc(CC#N)cc2)c(C)c1`, the “% Inhibition” value is given as -12% and the Z score was determined as 1.16.
On the same counts, the results for `COc1nc(NC(Cc2ccccn2)[C@H]2C[C@H](O)C2)ncc1F` (some centres undefined) are 0% and -0.02.
Turning to `FC(F)(F)C1CC(NCc2ncc[nH]2)C1` (centres undefined), the “% Inhibition” value was -6% and the Z score is 0.7.
`Cc1ccc(NC(=O)N2C[C@@H]3CCCN3c3ccccc32)c(C)c1`: the “% Inhibition” value is -3% and the Z score is 0.42.

Usually % Inhibition stands for the drop in the measured response relative to a control, in per cent.
